Experimental data: PubChem BioAssay AID1347165 (National Center for Advancing Translational Sciences (NCATS), 2019)
Several values for one entry are separate records, joined by “and”; a condition that tells them apart may be missing. Equal values may be shown once. Hit rate of the full screen: of about 220,000 compounds, about 5,700 (2.6%) were called active. Inconclusive results, whose numbers are uncertain, are shown with a selection of clear calls. Calls come from the whole dose curve; as a rule, active = well fitted inhibition curve with a large enough effect; inconclusive = small, poorly fitted or top-dose-only effect; inactive = no such curve, though single readings can be large or run the other way. Where the call is inconclusive, the potency comes from a doubtful curve fit.

Molecular target: Lysine-specific demethylase 5B (Homo sapiens) (UniProt Q9UGL1)
UniProt Q9UGL1, sequence (Q9UGL1 whole entry, looked up): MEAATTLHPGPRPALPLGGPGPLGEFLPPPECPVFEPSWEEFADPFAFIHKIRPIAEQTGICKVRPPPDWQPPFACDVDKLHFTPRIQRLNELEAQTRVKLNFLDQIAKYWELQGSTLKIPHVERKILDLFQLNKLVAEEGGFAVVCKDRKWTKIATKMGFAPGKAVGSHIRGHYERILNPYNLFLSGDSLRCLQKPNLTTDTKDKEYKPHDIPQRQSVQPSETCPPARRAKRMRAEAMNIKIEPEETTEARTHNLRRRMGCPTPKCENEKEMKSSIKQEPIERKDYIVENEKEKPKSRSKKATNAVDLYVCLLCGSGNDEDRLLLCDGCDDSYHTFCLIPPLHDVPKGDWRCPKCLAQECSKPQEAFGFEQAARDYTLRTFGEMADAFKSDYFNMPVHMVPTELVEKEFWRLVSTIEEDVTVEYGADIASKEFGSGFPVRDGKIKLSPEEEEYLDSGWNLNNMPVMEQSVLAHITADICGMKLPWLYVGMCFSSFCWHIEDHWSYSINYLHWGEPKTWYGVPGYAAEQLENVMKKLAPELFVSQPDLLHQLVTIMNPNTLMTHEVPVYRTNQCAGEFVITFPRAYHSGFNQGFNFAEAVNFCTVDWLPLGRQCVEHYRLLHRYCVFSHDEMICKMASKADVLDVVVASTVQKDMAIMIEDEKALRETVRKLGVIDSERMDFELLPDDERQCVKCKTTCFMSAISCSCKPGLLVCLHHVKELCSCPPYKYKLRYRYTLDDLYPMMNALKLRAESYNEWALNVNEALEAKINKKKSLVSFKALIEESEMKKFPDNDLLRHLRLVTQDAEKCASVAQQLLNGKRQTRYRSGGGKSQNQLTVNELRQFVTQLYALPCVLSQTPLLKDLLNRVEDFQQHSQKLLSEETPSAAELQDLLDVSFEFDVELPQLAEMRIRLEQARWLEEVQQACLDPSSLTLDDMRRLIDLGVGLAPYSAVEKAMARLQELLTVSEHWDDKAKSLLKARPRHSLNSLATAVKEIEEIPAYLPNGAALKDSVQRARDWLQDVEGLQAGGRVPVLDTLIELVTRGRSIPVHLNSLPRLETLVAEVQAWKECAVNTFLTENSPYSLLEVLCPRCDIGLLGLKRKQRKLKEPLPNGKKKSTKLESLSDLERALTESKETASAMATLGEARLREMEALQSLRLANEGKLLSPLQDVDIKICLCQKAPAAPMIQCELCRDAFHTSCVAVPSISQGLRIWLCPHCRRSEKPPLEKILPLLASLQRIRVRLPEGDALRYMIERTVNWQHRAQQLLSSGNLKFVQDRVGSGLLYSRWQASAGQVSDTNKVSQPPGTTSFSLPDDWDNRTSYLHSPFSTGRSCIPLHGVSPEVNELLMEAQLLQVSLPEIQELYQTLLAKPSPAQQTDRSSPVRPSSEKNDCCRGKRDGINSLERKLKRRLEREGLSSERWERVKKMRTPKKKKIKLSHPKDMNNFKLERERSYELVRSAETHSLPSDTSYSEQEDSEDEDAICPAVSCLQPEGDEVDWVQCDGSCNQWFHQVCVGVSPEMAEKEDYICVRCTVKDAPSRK
Assay: Primary screen for KDM5B Histone Demethylases FDH-coupled qHTS; note: nearly all actives have a fitted effect of over 70% in size; for activity change, negative = inhibition: 0% is about no effect
Conditions: FDH-coupled NADH fluorescence (FDH is formaldehyde dehydrogenase); activity change, negative = inhibition: at 57.7 µM (top of the series) unless noted
Summary of the method: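 Here, H3K4me3 peptide (12.5 µM in substrate mix) is demethylated by KDM5BΔAP, 200 nM final, after 10 min compound exposure. Formaldehyde product is coupled through FDH (0.25 U/mL in mix) to NADH fluorescence; 30-min ΔRFU feeds dose-response curves.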
Potency is the fitted concentration of half-maximal effect; tags give direction and shape of the fitted curve.

Row | SMILES | Potency | activity change, negative = inhibition
1 | O=c1cc(CN2CCN(Cc3ccccc3)CC2)c2cc3c(cc2o1)CCC3 | inconclusive: 39.8 µM [inhibitor, single point] | –
2 | O=c1cc(CNCc2ccccc2)c2ccccc2[nH]1 | inconclusive: 44.7 µM [inhibitor, single point] | –
3 | O=C(COc1ccccc1)Nc1nnc(-c2ccccc2Cl)o1 | inconclusive: 35.5 µM [inhibitor, single point] | –
4 | O=C(NCCc1csc(-c2ccc(Cl)cc2)n1)c1cccs1 | inconclusive: 35.5 µM [inhibitor, single point] | –
5 | CCCn1c(=O)[nH]c(=O)c2c1nc(-c1ccc(OC)c(C)c1)n2CCOC | inconclusive: 1.78 µM [inhibitor, full curve, poor fit] | –
6 | COc1ccc(S(=O)(=O)Oc2ccc3c(c2)O/C(=C\c2ccc(C)cc2)C3=O)cc1 | – | inactive: -10.5%
7 | NC(=O)COC(=O)c1ccc(C2Nc3ccccc3S(=O)(=O)N2)cc1 (configuration not stated) | inconclusive: 20 µM [inhibitor, partial curve, poor fit] | –
8 | Cn1c(CN2CCOC[C@H]2c2ncc(-c3ccc(Cl)s3)[nH]2)nc2ccccc21 | – | inactive: -6.72% [at 86.2 µM]
9 | CC(C)c1ncc(C(O)c2ccccc2)n1C (configuration not stated) | inconclusive: 31.6 µM [inhibitor, partial curve, poor fit] | –
10 | CCc1cccc(NC(=O)Cn2c(=O)n(Cc3ccccc3)c(=O)c3c2c2cc(OC)ccc2n3C)c1 | inconclusive: 25.1 µM [inhibitor, partial curve, poor fit] | –
11 | FC(F)(F)Oc1ccccc1-c1nnc(-c2cccc(C(F)(F)F)c2)o1 | inconclusive: 39.8 µM [inhibitor, single point] | –
12 | O=S1OCCSc2sc(=S)sc2SCCO1 | – | inactive: -20.9%
13 | O=C(N[C@H]1CCN2C(=O)c3cc(-c4ccsc4)ccc3NC(=O)[C@H]12)C1CCCC1 | inconclusive: 39.8 µM [inhibitor, partial curve, poor fit] | –
14 | Cc1ccc(NC(=O)CSc2nc3ncccc3[nH]2)cc1F | inconclusive: 3.55 µM [inhibitor, full curve, poor fit] | –
15 | Cc1[nH]c2ccccc2c1C(c1ccccc1I)c1c(C)[nH]c2ccccc12 | inconclusive: 28.2 µM [inhibitor, single point] | –
16 | CS(=O)(=O)Oc1ccc2c(c1)O/C(=C\c1ccccc1)C2=O | inconclusive: 22.4 µM [inhibitor, partial curve, poor fit] | –
17 | O=C(Nc1cc(C(F)(F)F)ccc1N1CCOCC1)C1CC1 | – | inactive: 6.34%
18 | CC(=O)Nc1cccc(NC(=O)c2cc(-c3cccs3)nc3ccccc23)c1 | inconclusive: 35.5 µM [inhibitor, single point] | –
19 | Cc1ccc(-c2cc(C(=O)O)c3ccccc3n2)cc1C | inconclusive: 31.6 µM [inhibitor, partial curve, poor fit] and inconclusive: 22.4 µM [inhibitor, partial curve, poor fit] | –
20 | O=C(Nc1cccc(Br)c1)C1CC(=O)N(c2n[nH]c3cccc(F)c23)C1 (configuration not stated) | inconclusive: 25.1 µM [inhibitor, partial curve] | –
21 | Cc1ccc(S(=O)(=O)Cc2nc(-c3ccc(C(=O)NCc4ccccc4)cc3)oc2C)cc1 | inconclusive: 15.8 µM [inhibitor, partial curve, poor fit] | –
22 | ClCC(Cl)C[n+]1cccc2ccccc21 (configuration not stated) | inconclusive: 39.8 µM [inhibitor, single point] | –
23 | Cc1oc(-c2ccccc2)nc1CC(=O)Nc1ccc(S(=O)(=O)NC2CC2)cc1 | – | inactive: 14.8%

Row | SMILES | Potency | activity change, negative = inhibition
24 | CC(C)(C)NC(=O)CCN(/N=C/c1ccccc1)C1=NS(=O)(=O)c2ccccc21 | inconclusive: 39.8 µM [inhibitor, single point] | –
25 | O=C(Cn1c(=O)n(-c2cccc(Cl)c2)c(=O)c2sc3ccccc3c21)N1CCCC1 | inconclusive: 35.5 µM [inhibitor, partial curve, poor fit] | –
26 | CC(=O)c1cccc(NC(=O)c2ccccc2SCc2cccs2)c1 | – | inactive: 5.22%
27 | O=C(c1nc(-c2cccnc2)c2ccccn12)N1CCOCC1 | active: 112 µM | –
28 | Cn1nc(C(=O)OCCOc2ccc(Br)cc2)c2ccccc2c1=O | – | inactive: 18.4%
29 | NC(=S)N/N=C/c1ccc([N+](=O)[O-])s1 | – | inactive: -26.3%
30 | Cn1cc(CC(=O)N2CCCc3ncc(C(=O)NCc4ccoc4)cc32)c2ccccc21 | inconclusive: 31.6 µM [inhibitor, single point] | –
31 | COc1cccc([S+](=O)([O-])N2CCC(c3nnc4n3C(C(=O)O)CC4)CC2)c1 (configuration not stated) | active: 79.4 µM | –
32 | COc1ccc2c(-c3ccccc3)cc(SCC(=O)N(C)C)nc2c1 | inconclusive: 10 µM [inhibitor, partial curve, poor fit] | –
33 | CCc1ccc2oc(-c3ccc(NC(=O)c4ccc(OC)c(Br)c4)cc3)nc2c1 | inconclusive: 39.8 µM [inhibitor, single point] | –
34 | COC(=O)[C@@H]1Cc2ncn(C)c2CN1S(=O)(=O)c1ccc(C#N)cc1 | inconclusive: 31.6 µM [inhibitor, partial curve] | –
35 | Cc1cccc(Cn2cc(C(=O)Nc3ccc(F)c(C(F)(F)F)c3)ccc2=O)c1 | inconclusive: 35.5 µM [inhibitor, single point] | –
36 | COc1ccc(Cl)cc1C(=O)N1CCC2(CC1)CN(C)CCN2C | – | inactive: -19.7%
37 | O=C(c1cc(F)ccc1F)N1CCCC(Cc2nncn2CC2CC2)C1 (configuration not stated) | – | inactive: -18.4%
38 | CS(=O)(=O)N(Cc1csc(-c2cccs2)n1)C1CCN(C(=O)c2c(F)cccc2F)CC1 | inconclusive: 20 µM [inhibitor, partial curve, poor fit] | –
39 | COCCCn1c(=O)/c(=C\c2ccccc2OC(C)C)s/c1=C(/C#N)C(=O)Nc1ccc(C(=O)O)cc1 | inconclusive: 39.8 µM [inhibitor, single point] | –
40 | CCCCN(CC)CCNC(=O)c1cc2c(=O)oc3ccc(C)cc3c2s1 | inconclusive: 2.82 µM [inhibitor, partial curve, poor fit] | –
41 | O=C1CCN(C(=O)c2cccc3[nH]ccc23)CCCCCCN1 | inconclusive: 25.1 µM [inhibitor, partial curve, poor fit] | –
42 | O=C1CC2CCN(Cc3ccccc3)CC2CCN1 (configuration not stated) | – | inactive: -3.87% [at 149 µM]
43 | O=C(c1ccc(F)cc1)N1c2nc(-c3ccco3)nn2C2(CCCCC2)[C@@H]2CCCC[C@@H]21 | inconclusive: 39.8 µM [inhibitor, single point] | –
44 | O=C(NCC1CCOCC1)C1CC(=O)N(c2n[nH]c3cc(Br)ccc23)C1 (configuration not stated) | inconclusive: 8.91 µM [inhibitor, partial curve, poor fit] | –
45 | CN1CC(=O)N(C2CCCNCC2)Cc2c(NCCc3ccccc3F)ncnc21 (configuration not stated) | inconclusive: 56.2 µM [inhibitor, partial curve, poor fit] | –
46 | CC1(C(=O)NCc2ccncc2)CCc2cnc(NCc3ccccc3)nc21 (configuration not stated) | inconclusive: 39.8 µM [inhibitor, partial curve, poor fit] | –

Row | SMILES | Potency | activity change, negative = inhibition
47 | COCCn1c(COc2ccccc2-c2ccccc2)n[nH]c1=S | – | inactive: -7.53%
48 | CN1CCC(N2C[C@H](O)C[C@H]2c2nc(CS(=O)(=O)c3ccc(F)cc3)no2)CC1 | inconclusive: 5.01 µM [inhibitor, full curve, poor fit] | –
49 | CCOC(=O)CNC(=O)CSc1cn(CC(=O)N2CCCCC2)c2ccccc12 | – | inactive: 1.33%
50 | CN(C)C(C(=O)N1CCN(Cc2ccccc2C#N)CC1)c1ccc(F)cc1 (configuration not stated) | – | inactive: 12.7%
51 | COCc1nnc(NC(=O)C2CC(=O)N(c3ccc(F)cc3)C2)s1 (configuration not stated) | – | inactive: -12.5%
52 | O=C(CN1C(=O)COc2ccc(C(=O)COc3ccc(F)cc3)cc21)NCCc1ccccc1 | – | inactive: -10.7%
53 | CC(C)N(C(=O)CSc1nc2ccc(Cl)cc2[nH]1)c1ccccc1 | inconclusive: 39.8 µM [inhibitor, single point] | –
54 | COc1ccc2c(CN(C)CCOc3cccc(Cl)c3)cc(=O)oc2c1 | inconclusive: 25.1 µM [inhibitor, single point] | –
55 | COCc1ccc2c(c1)c(OC(C)(C)C(=O)NC1CCN(C)CC1)nn2CCC(C)C | active: 35.5 µM | –
56 | Cc1ccc2nc3c(cc2c1)c(NC(=O)c1ccco1)nn3CC(C)C | inconclusive: 28.2 µM [inhibitor, partial curve, poor fit] | –
57 | COc1ccc(CN2CCN(C3CCN(c4ccccc4)CC3)CC2CCO)cc1C (configuration not stated) | inconclusive: 3.98 µM [inhibitor, full curve] | –
58 | Cc1nc(SCC(=O)N(Cc2ccc(F)cc2)C2CCCCC2)sc1CC(N)=O | – | inactive: 1.33%
59 | O=C(OCC(=O)c1ccccc1Cl)c1ccc(OCc2ccccc2)cc1 | – | inactive: -12.3%
60 | CC(C)CC(=O)N1CCCC(c2nc(C3CCOCC3)no2)C1 (configuration not stated) | inconclusive: 35.5 µM [inhibitor, single point] | –
61 | CCCn1ccc2sc(C)c(C(=O)N3CCN(c4ccccn4)CC3)c2c1=O | inconclusive: 22.4 µM [inhibitor, partial curve, poor fit] | –
62 | CCOc1ccccc1CNC(=O)CN1CC2CC(C1)[C@H]1CCCC(=O)N1C2 (some centres not stated) | – | inactive: -12.2%
63 | Cn1c([C@H]2CCN(Cc3ccc(F)c(F)c3)C2)nc2ccccc21 | inconclusive: 28.2 µM [inhibitor, partial curve] | –
64 | COCCn1ncc(N2CCC(C(=O)N(C)CC(=O)Nc3ccc(F)cc3)C2)cc1=O (configuration not stated) | – | inactive: -32.2%
65 | COC(=O)c1sc(NC(=O)CN2c3ccccc3CC2C)c(C(=O)OC)c1C (configuration not stated) | – | inactive: 15.4%
66 | CNc1c(NS(=O)(=O)c2ccc(Br)cc2)c(=O)oc2ccccc12 | inconclusive: 39.8 µM [inhibitor, single point] | –
67 | CCS(=O)(=O)NCC1(COc2ccccc2)C[C@@H](O)[C@@H](O)C1 (some centres not stated) | inconclusive: 35.5 µM [inhibitor, single point] | –
